Test results taken from PubChem BioAssay AID445 (National Center for Advancing Translational Sciences (NCATS), 2006).
Values joined by “and” are separate entries in the source; they are usually repeats but may differ in a detail not shown here. Equal entries are not always repeated. Among all 110,000 compounds or so, about 40 (0.04%) were called active. The inconclusive results got no clear call from the source; some entries with a clear call stand among them for comparison. Calls come from the whole dose curve; as a rule, active = well fitted curve in the direction sought with a large enough effect in the signal ratio (not every such curve was filed as active); inconclusive = small, poorly fitted or top-dose-only effect, or a change in a side signal; inactive = flat fitted curve, though single readings scatter; the % refers to the signal ratio. A potency beside an inconclusive call is a rough fit, not a confirmed value.

Assay: IkB Signaling;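 for IkBa stabilization activation: 0% = basal untreated cells and 100% = reference inhibitor full response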
Settings: ABC-DLBCL IkBa-CBG/CBR dual luciferase ratio (green luciferase fused to IkBa over red control in OCI-Ly3 lymphoma cells), 4 h; IkBa stabilization activation: at 57.1 µM (top of the series), scaled: untreated 0%, proteasome inhibitor 100% unless noted
How it was run: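 Curves were fitted separately to fusion (green), unfused (red) and ratio luminescence, then classed by r2, magnitude and activity. Cells: OCI-Ly3, 4 h compound plus doxycycline at 37C; 10 uM MG-132 defined full response.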
Potency is the fitted concentration of half-maximal effect.

SMILES	IkBa stabilization activation	Potency
C/C(=C\C(=O)c1ccc(C)o1)Nc1ccc2c(c1)OCO2	inactive	
Brc1ccc(C2Nc3cccc4cccc(c34)N2)o1	inactive	
Cc1ccc(C2C(C#N)=C(N)SC(N)=C2C#N)c(C)c1	inconclusive: 1.72% [signal inhibitor]	
Cc1ccc(-n2ncc3c(NC4CCCCC4)ncnc32)cc1C	inconclusive: 1% [signal inhibitor]	
CCOC(=O)c1cc2c(=O)n3ccccc3nc2n(CCOC)c1=NC(=O)c1c(-c2c(F)cccc2Cl)noc1C	inconclusive: 0.292% [signal inhibitor]	
O=C(c1ccccc1)n1nc(-c2ccc(Cl)cc2)nc1NCc1ccco1	inconclusive: 4.31% [signal inhibitor]	
COC(=O)c1[nH]c2ccc(C)cc2c1NC(=O)CN1CCCC(C)(C)C1	inconclusive: 5.51% [signal inhibitor]	
CCCN(C(=O)c1ccc2c(=O)n3c(nc2c1)CCCCC3)c1cccc(Cl)c1	inconclusive: -1.17% [signal inhibitor]	
COc1ccc(OCC(=O)N2CCN(C(=O)c3ccc(OC)c(OC)c3)CC2)cc1	inactive	
COc1ccccc1CN1CCC(CNC(=O)c2cnn(-c3cccc(Cl)c3)c2C2CCN(C(=O)OC(C)(C)C)CC2)CC1	inconclusive: -0.334% [signal inhibitor]	
COC(=O)c1sccc1S(=O)(=O)N(CC(=O)Nc1c(C)cccc1C)c1ccc(C)c(C)c1	inconclusive: 0.204% [signal inhibitor]	
COc1ccc2c(c1)c(=O)c(S(=O)(=O)c1ccc(C)cc1)cn2Cc1ccccc1C	inconclusive: 2.03% [signal inhibitor]	
COC(=O)C(C)n1nnc2sc(-c3ccccc3)cc2c1=O (configuration not stated)	inconclusive: 3.97% [signal inhibitor]	
Cc1ccc(NC(=O)CCC(=O)N2CCSc3ccccc32)cc1Cl	inactive	
CCC(C(=O)Nc1cc(F)ccc1F)n1nc(-c2cc(C)ccc2C)ccc1=O (configuration not stated)	inconclusive: -0.0739% [signal inhibitor]	
Oc1c(Cl)cc(Cl)c(Cl)c1Cc1c(O)c(Cl)cc(Cl)c1Cl	inconclusive: -2.38% [signal inhibitor]	
Cc1c(NC(=O)C(C)(C)Oc2ccc(Cl)cc2)cccc1-c1nc2ncccc2o1	inconclusive: 20.2% [signal inhibitor]	
CCOC(=O)CC(=O)Nc1nc2ccccc2s1	inconclusive: 3.46% [signal inhibitor]	
CCCc1c(-c2ccc(O)cc2)nn(-c2ccc(O)cc2)c1-c1ccc(O)cc1	inconclusive: 1.98% [signal inhibitor] and inconclusive: -0.031% [signal inhibitor]	
CCC(C(=O)Nc1ccccc1OC)n1nc(C)c2sc3ccccc3c2c1=O (configuration not stated)	inconclusive: 13.1% [signal inhibitor]	
COc1ccc(C(=O)COC(=O)c2ccco2)cc1	inactive	
Cc1ccc(C)c(OCC(=O)Nc2ccc(S(=O)(=O)Nc3onc(C)c3C)cc2)c1C	inconclusive: 2.85% [signal inhibitor]	
CCCC1C(c2ccco2)NC(c2ccco2)CC1(C)O (configuration not stated)		inconclusive: 20 µM [signal inhibitor, partial curve]

SMILES	IkBa stabilization activation	Potency
CCN(CCCNC(=O)CSc1cc(=O)n(CC)c2ccccc12)c1cccc(C)c1	inconclusive: 0.527% [signal inhibitor]	
Nc1c(C(=O)NC2CC2)c2nc3ccccc3nc2n1-c1ccc2c(c1)OCO2	inactive	
COC(=O)c1ccc(NC(=O)CSc2ncc3c(n2)-c2cc(Cl)ccc2N(Cc2ccccc2)S3(=O)=O)cc1	inactive	
CCOc1ccc(CCNC(=O)c2ccc(CS(=O)Cc3cccc(Cl)c3)o2)cc1 (configuration not stated)	inconclusive: -0.38% [signal inhibitor]	
Cc1ccc2c(=O)c(C(=O)c3ccc(Cl)cc3)cn(CC(=O)NC3CCCCC3)c2n1	inconclusive: -1.7% [signal inhibitor]	
O=S(=O)(c1ccc(F)cc1)N(Cc1nc(-c2ccc(Cl)cc2)no1)C1CCCCC1	inconclusive: 0.73% [signal inhibitor]	
O=C(Nc1c(C(=O)O)oc2ccccc12)c1ccc(C(F)(F)F)cc1	inconclusive: 4.15% [signal activator]	
Cc1cccc(Nc2ncc3c(n2)CC(C)CC3=O)c1 (configuration not stated)	inconclusive: 13.7% [signal inhibitor]	
CCOc1ccc(C(=O)Nc2ccc(S(=O)(=O)Nc3nc(C)cc(C)n3)cc2)cc1OC	inconclusive: 1.95% [signal inhibitor]	
CS(=O)(=O)Nc1cccc(-c2ccc3ncnc(NC4CC4)c3c2)c1	inactive: 5.2% [at 11.4 µM, scaled: untreated 0%, proteasome inhibitor 100%]	
CC(C)(N)C(=O)N[C@@H]1C(=O)N2[C@@H]1SC(C)(C)[C@H]2C(=O)O	inactive: -0.102% [at 11.4 µM, scaled: untreated 0%, proteasome inhibitor 100%]	
COc1ccc(-c2cc(C(F)F)n3ncc(C(=O)N4CCSCC4)c3n2)cc1	inactive	
COc1ccc(N(CC(=O)Nc2cc(C)ccc2C)S(=O)(=O)c2ccc(OC)c(OC)c2)cc1	inconclusive: 1.55% [signal inhibitor]	
O=C(CN1CCN(C(=O)c2ccco2)CC1)Nc1ccccc1-c1ccccc1	inconclusive: 7.54% [signal inhibitor]	
O=C(Nc1ccc(F)cc1F)c1ccc2c(O)c(S(=O)(=O)c3ccc(Cl)cc3)c(=O)[nH]c2c1	inconclusive: 1.51% [signal inhibitor]	
COc1cc(NC(=O)CSc2nc3nc(C)c(Cc4ccc(C)cc4)c(C)n3n2)cc(OC)c1OC	inconclusive: -0.874% [signal inhibitor]	
COc1ccc(-c2noc(CCC(=O)Nc3cc(Cl)c(OC)cc3OC)n2)cc1	inactive	
Cc1ccc(C2C(C#N)=C(N)SC(N)=C2C#N)cc1	inconclusive: 5.45% [signal inhibitor]	
O=C(CN1CCN(c2ccc(F)cc2)CC1)Nc1nnc(-c2ccccc2)s1	inconclusive: 5.14% [signal inhibitor]	
COC(=O)c1c(NC(=O)Nc2ccc(Cl)cc2)sc(C)c1C	inconclusive: 3.34% [signal inhibitor]	
Cc1noc(C)c1COC(=O)c1cccc(S(=O)(=O)N2c3ccccc3CC2C)c1 (configuration not stated)	inconclusive: 3.92% [signal inhibitor]	
COc1ccc(NC(=O)/C=C\c2ccc(Cl)cc2)cc1		inconclusive: 7.94 µM [signal inhibitor, full curve]
Cc1ccc2c(c1)N(C(=O)Nc1cccc(C)c1C)CCO2	inconclusive: 1.46% [signal inhibitor]	

SMILES	IkBa stabilization activation	Potency
CS(=O)(=O)N1CCc2cc(C(=O)N3CCN(c4ccccc4)CC3)ccc21	inconclusive: 1.91% [signal inhibitor]	
CC1CCC(N2CC(=O)N(C3CCCCC3)C(c3ccc(F)cc3)C2=O)CC1 (configuration not stated)	inconclusive: -0.0875% [signal inhibitor]	
CCOC(=O)c1c(NC(=O)c2cccs2)sc(C)c1CC	inactive	
c1ccc(-c2cccc(N3CC[C@@]4(CCCNC4)C3)c2)cc1	inactive: -0.391% [at 11.4 µM, scaled: untreated 0%, proteasome inhibitor 100%]	
CCC(=O)N1CCc2cc(S(=O)(=O)NC(Cc3ccccc3)C(=O)Nc3cccc(OC)c3)ccc21 (configuration not stated)	inconclusive: -2.68% [signal inhibitor]	
COc1ccc(N2CCN(c3oc(COc4ccccc4)nc3C#N)CC2)cc1	inactive	
CCOC(=O)c1cc(S(=O)(=O)N2CCN(c3ccc(C)cc3C)CC2)[nH]n1	inconclusive: 0.823% [signal inhibitor]	
O=C(CCCCCn1c(=O)[nH]c2ccccc2c1=O)NCc1ccccc1	inactive	
CCOc1ccccc1Nc1ncnc2c1cnn2-c1ccccc1	inconclusive: 2.52% [signal inhibitor]	
Cc1nc2scc(C)n2c(=O)c1S(=O)(=O)N1CCN(c2cccc(C(F)(F)F)c2)CC1	inconclusive: 1.92% [signal inhibitor]	
CCCOc1ccc(C(=O)Nc2ccc(Cl)c(-c3nc4ncccc4o3)c2)cc1	inconclusive: 16.4% [signal inhibitor]	
Cc1ccc(-c2noc(CCCC(=O)NCc3ccco3)n2)cc1	inconclusive: -2.65% [signal inhibitor]	
Cc1c(-c2nsc(NC(=O)c3cccc(Cl)c3)n2)nnn1-c1ccccc1C(F)(F)F	inconclusive: 3% [signal inhibitor]	
Nc1ncnc2nc(N3CCN(CCO)CC3)[nH]c12	inactive: -0.35% [at 11.4 µM, scaled: untreated 0%, proteasome inhibitor 100%]	
CCOc1ccc(CCNC(=O)CCc2c(C)nc3cc(-c4ccccc4OC)nn3c2C)cc1		inconclusive: 6.31 µM [signal inhibitor]
CCCCn1c(NCc2cc(Cl)ccc2O)nc2ccccc21	inconclusive: 4.55% [signal inhibitor]	
Nc1c(-c2nc(-c3ccc4c(c3)OCO4)cs2)c2ccccn2c1C(=O)c1ccccc1	inactive	
COc1ccc(CNCCC(c2ccccc2)c2ccc3c(c2)OCO3)cc1 (configuration not stated)	inconclusive: 11.5% [signal inhibitor]	
CCCC1=Nc2cc(C(=O)NCCc3ccccc3)ccc2Sc2ccc(C)cc21		inconclusive: 7.94 µM
COc1ccccc1NC1=C(C)C(=O)CC1	inconclusive: 15.8% [signal activator]	
Cc1cccc(NC(=O)c2cc(-c3ccco3)nc3ccccc23)n1	inactive	
